Some of the results follow. At the low end of the ranking the order means little.
molecular target: SIX1-Q177R homeodomain (UniProt Q15475); assay: universal protein binding microarray; settings: Universal all-10-mer PBM (8x60K, AMADID 030236), 300 nM GST-tagged protein, Alexa Fluor 488 anti-GST; buffer, salt, pH and temperature not stated; high values mean tight binding; most listed sequences are background and not binding sites; double strand, one strand shown

Sequence	binding signal [E-score]
GATATACC	0.107
AATAAATA	-0.0122
CTCAGTAC	-0.0363
CACGACTA	0.22
ACCGCGAG	0.0789
ATTGTAAC	-0.00475
ACTCCCAT	0.112
AACTAGCT	-0.102
ATGAATCC	-0.0709
ATGTTCTC	-0.168
CGGGATAA	-0.0428
CCCGATTA	0.166
CATGTCGA	-0.0764
GATCATGA	-0.114
CCTTGACC	0.172
AGCGGAGG	0.0793
GCAATTCA	-0.232
ACCGCCGT	0.0418
AACATTGG	-0.168
GCAGCTCC	-0.0733
CGAGGGAA	-0.0121
ATAGGTGA	-0.0739
CCGCACAG	0.000355
CCGGCTGA	0.124
AGTTCAAG	-0.185

Sequence	binding signal [E-score]
AGCAGTCG	-0.136
ATTAGCAG	0.021
GTGCTCGA	0.00651
TAGTTTGA	-0.106
GGAAATCC	-0.149
ACGCCAGA	0.0534
AGGGCACT	-0.0979
AGTCTACA	0.00161
CATACGCA	0.0651
TTCCAGAA	-0.0798
TCGGTGAA	-0.0747
ACTCTCAA	-0.0235
AGTGTGGC	0.193
CATAGACC	-0.0744
ATGCATCC	-0.228
ACAGAAAC	-0.0356
AACGCGGA	-0.0488
GACCGAGC	-0.157
CAGGAGCG	-0.117
CCCTTACA	0.281
GCTCTGCA	-0.0598
ATCCAAGA	-0.0372
CAGGCGTC	-0.0952
ACCACCTA	0.076
AACAAACG	-0.152

Sequence	binding signal [E-score]
CCCAGTCA	0.105
CGCAGAAG	-0.0836
GCATGCAC	0.126
ATTTCGAA	-0.188
CACACCGC	0.412
GTACTCTA	0.0786
GTCCGCAC	0.0282
AAAGTGAG	-0.167
CAGTTCAG	-0.0804
CCATCACG	-0.0894
AGGTACAT	-0.105
CTAGCTAC	-0.0175
AGAGCTGC	-0.137
GGACAGAC	-0.229
ACAGCATG	-0.137
GAGCTACC	-0.0589
GATTTGAA	-0.125
TGGAACAA	-0.239
CACTGTCC	0.0667
CCAGGTGA	-0.0302
CGTTATAA	0.0165
GACCACTA	-0.0418
TCAAAAAA	-0.219
TCCGCCAA	-0.195
AAGAGAAA	-0.163

Sequence	binding signal [E-score]
ACGGTTGG	-0.0283
GCTGGTCC	-0.0481
CTCAACGC	-0.0419
AGAGTGAA	0.0429
AAGAACTC	-0.112
CGATTAAG	-0.17
AAATCCTT	-0.129
AATGACAT	-0.257
AAACTCAC	-0.0698
CGTTGTAA	-0.131
GTATGCCA	0.0101
GATGCAAA	-0.131
CAACTCGA	-0.0261
TCTATACA	0.0974
AATCGCAC	-0.0327
GGTAGTAA	0.0612
CATCTAAC	-0.0832
GGATTACC	0.0148
GAGAGGCA	-0.0637
GCTGCCGA	-0.166
GAGTTGAA	-0.169
CTGCGTCA	-0.203
AGCGTTCC	-0.299
CTACACCA	0.474
CACAGAAA	0.0521

Sequence	binding signal [E-score]
ATGCTTGG	-0.246
AATGAGCG	-0.145
ACTCAGGC	0.069
CCCACAGG	0.126
ATTTTTGG	-0.23
CAACGCAG	-0.0865
ACGGTCCC	-0.19
ACTGCTAG	-0.133
ACAGGGCG	0.01
AGGCTCCC	-0.133
CCGGCCAC	0.0355
AGAGGATA	0.0593
CTCATGAG	-0.154
ATACCATG	0.133
ACTGAGCA	0.0705
CGCTAGTC	-0.137
ACATAAAG	-0.129
AATGGTTC	0.0384
AAATTTAG	-0.241
AACGCACT	-0.0915
AAGTTCGG	0.0775
AGCCTCCC	-0.194
AGGTGGAA	-0.0575
TGCCTGAA	-0.118
ATCTCCAC	-0.0994

Sequence	binding signal [E-score]
AACCGAAT	-0.112
ACGGCTGA	-0.103
CTCGCGTC	0.144
CAGACCAG	-0.251
AAACAAAC	-0.165
CCGAGTCG	0.129
GGAATTGA	-0.121
AGTCATCA	-0.164
AAATGTTG	-0.298
ACTGCCAA	0.117
GGTCCCAA	0.126
ATAAGTGA	-0.146
ATAAAAAG	-0.149
CGATGTAA	0.00147
ACTGCAGG	-0.132
GTTTCTTA	0.0667
CAACCCCG	0.173
CCTGGACA	0.105
ATAGCGAT	-0.201
GATGGTTA	0.029
GAGAGATC	0.0714
AACAGAAC	-0.317
CATGTGGA	-0.0707
CCTGAACA	0.254
GCTAATAA	-0.178

Sequence	binding signal [E-score]
AGTGAAGG	0.0295
ATCAACCA	-0.125
CAAGCGTA	-0.0155
CGTCCCGC	0.0594
CCAACAGC	0.00592
TGATAGCA	0.00048
ATGCTATC	-0.0679
CGATCTAA	-0.0786
GGGAACGA	-0.227
ATTAGATC	-0.106
AATACTCC	0.123
AGAAATCC	-0.242
GTAACTCA	-0.182
GTCTCTGA	0.026
AGCAGCTG	-0.0574
AACAACAA	-0.0903
CCGCGGAC	0.0698
TATCGGGA	-0.00825
AGACCGCC	-0.0689
GCAACTCA	-0.0632
CGTGCCCA	-0.063
GGACGGCC	-0.19
AATTCTCG	-0.18
GCGATTAC	0.027
ATCTGCCG	-0.0742

Sequence	binding signal [E-score]
CATTGATC	-0.0127
AGTATAAC	0.0523
GGAAGCAA	-0.0927
ATCGATCA	-0.15
GAGAACTA	-0.179
CTGTTGCA	-0.0293
CGTTTTGA	-0.146
ACCCCTCA	0.289
CTCGTGAC	0.103
GCAGATCA	0.057
ATCACTGG	-0.0168
CAATAGCA	0.0163
CGAGTAAG	-0.0511
AACCGTCG	-0.168
TAGATACA	0.017
TCTCCAAA	-0.0523
AGCTATCG	-0.151
GTGGTGGA	0.0238
CTGAAAGC	0.0547
AAATGTAT	-0.33
CGTTAATC	-0.19
CAGGTGGA	-0.0232
AAGCCGAG	-0.00128
AGAGTAGA	0.0276
CTCCCAAC	0.0302

Sequence	binding signal [E-score]
AGAACCAT	-0.29
CGATACCA	0.321
CTAGCGAC	-0.166
CACAGCAC	0.0522
CTGATATC	-0.213
ACAGAACC	-0.171
AAGTGGGC	-0.0756
ATAGAACG	-0.192
CCGTTAGA	-0.107
CATGAGGC	0.0598
CGAGCCCA	0.125
GCCATGGC	-0.258
CAATCCAG	-0.189
CGCTAGCA	-0.165
AGACAGGC	-0.257
AAACGTGA	-0.145
CAAAGGAC	-0.00451
CAAGACGA	-0.0687
CTCTGTGA	-0.0272
CAGTCGCG	0.00999
AACGGAAC	-0.198
CTCGATAA	-0.0572
CAATCATA	0.0387
GATCGAGC	-0.0139
ACTCCGAC	0.219

Sequence	binding signal [E-score]
CCTGATAC	0.202
CAGTCTAG	-0.218
CTCAGACA	0.189
CAGAGGGG	0.193
AAAAACAA	-0.266
CAAGGAAC	-0.113
AGTACCCC	0.287
CGGATGGC	-0.00405
ACTGTAGA	-0.0859
AAGGTGAT	-0.134
GGGTGCGA	0.181
AACTGGGT	0.0752
AATGTAGC	-0.206
CCATATAA	0.0149
AGCGTACC	0.0193
ACCTCACG	0.153
GGTAGATA	0.0686
ACCACGGG	0.138
CGTGTATA	0.367
AAGCATGG	-0.156
TCTCCTCA	-0.17
CAGGTAAG	-0.0841
CGTAAACA	0.173
CGATCGTA	0.00823
CACCCACG	0.275

Sequence	binding signal [E-score]
ACGAGGAG	-0.0338
ACTTACTC	0.179
AGGAGGTA	0.0817
TCAGTAAA	-0.181
CCCCAGAG	0.018
GACTTCGC	-0.165
AGAATGGA	-0.116
ATCAGACC	-0.158
ACTGCGCA	-0.129
CCTACATC	-0.174
ACTCGGTG	0.368
CAGCGTGC	-0.00421
CGCGCGGC	0.0441
CACGAACC	0.111
ACAGCAAT	-0.0958
TCATGAGA	-0.13
ACATGTCA	-0.0451
AATAACAA	-0.316
ATACTCAC	0.0173
AATCTAGG	-0.04
CCACACAG	0.0766
GAATGCTC	-0.251
CTCCGAAA	-0.127
CAACTATG	-0.0873
GGTCATTA	0.00064

Sequence	binding signal [E-score]
ACGCCGCT	0.0592
ATCTTCTG	-0.223
TCGTGACA	0.329
GTACTTCA	-0.163
CGCGGTCA	-0.126
GGAATAAC	0.0411
CCCGAACC	0.198
CACATCCG	-0.00454
GAATCGGA	-0.157
GGTTAGTA	0.124
ATAGTGTG	0.188
TAAAACAA	-0.105
AACCGGCG	0.114
AGAAGTAA	-0.25
ACATGCGG	-0.208
AATTATAC	0.0534
TAATCACA	0.213
ACCAAGAC	0.11
ACAGGTCG	-0.0862
GGAGGGAC	-0.0924
CGAAATAG	-0.222
CCGGAAGC	-0.0228
CCCCCCGA	0.314
CAGGCGAA	-0.124
ACGCTACT	0.0585

Sequence	binding signal [E-score]
AAGGAACG	-0.0739
GGTGAATA	-0.158
CGGTCTTA	-0.105
GATCCATA	0.056
ATTCTCTA	-0.0866
TCGAATAA	-0.284
TGCCCCAA	-0.161
CCCTCAAC	0.0359
CGCGGCCA	-0.0655
AGCTCGTA	-0.19
ACTAAACA	0.0451
CTACGCGC	-0.115
ACCCAGCG	0.168
ATTTATGG	-0.0409
ACGCGCCT	-0.101
ATAGTGGG	0.0484
CGTGCGCC	0.0513
GACGCACA	0.0773
GTTGAGTA	0.022
ACCTTGTG	0.175
CCTAGGCC	-0.159
CGCCGTCA	-0.0897
AGTACGGG	-0.0753
AACATAAG	-0.158
ATAGGCCG	0.0265

Sequence	binding signal [E-score]
CCAAGCTA	-0.199
GCGACGGA	-0.0502
CCACAGGA	-0.0176
TAACGTAA	-0.0222
ATTTATAC	0.0118
CCGTGGAG	-0.00471
ATCGGGAC	-0.00721
ACAGTTGA	-0.137
GACCGAGA	-0.0142
CACGGACA	0.298
GAGCAGAA	-0.209
CACGTTTC	0.0249
CGGATGTA	-0.0885
GCTCTTAA	-0.0787
TCTTCCAA	-0.0874
CCACTGCA	0.0524
AGGCTCGC	-0.175
ATCGATTA	0.164
ACTCCATC	0.266
